The supplement of paper PMC9446081
Among all 39,000 compounds or so, about 220 (0.56%) showed activity. Some of the results follow.

The molecules below were run on Escherichia coli K-12 BW25113 (assay: relative growth (OD600 normalised to plate interquartile mean) (fraction); higher = less growth inhibition, active = 0.2 or less). Conditions: 50 µM; LB; incubation time: overnight (16-24 h).
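Note: static incubation at 37 °C against the wild-type strain, values averaged over two biological replicates.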

| Compound | relative growth |
| --- | --- |
| CC(C)NC(=O)Nc1ccc2c(c1)C(=O)N([C@H](C)CO)C[C@@H](C)[C@H](CN(C)Cc1ccccc1)OCCCC[C@H](C)O2 | inactive: 0.992 |
| C[C@H](CO)N1C[C@H](C)[C@H](CN(C)CC2CCCCC2)OCCCC[C@H](C)Oc2ccc(NC(=O)Nc3ccccc3)cc2C1=O | inactive: 0.986 |
| NC(=O)N/N=C/c1ccc([N+](=O)[O-])o1 | active: 0.0425 |
| COc1ccc(NC(=O)N(C)C[C@H]2OCc3cnnn3CCCC(=O)N([C@@H](C)CO)C[C@@H]2C)c(OC)c1 | inactive: 1 |
| COCCNC(=O)C[C@@H]1CC[C@H]2[C@@H](COC[C@@H](O)CN2C(=O)Nc2ccccc2OC)O1 | inactive: 0.919 |
| C[C@H]1CN([C@@H](C)CO)C(=O)c2cccc(NC(=O)c3ccncc3)c2O[C@H]1CN(C)S(=O)(=O)c1ccccc1 | inactive: 1.02 |
| O=C(C[C@H]1C[C@@H]2c3cc(NC(=O)c4ccc5c(c4)OCO5)ccc3O[C@@H]2[C@@H](CO)O1)NCCc1ccccc1 | inactive: 1.01 |
| C[C@@H]1CCCCO[C@H](CN(C)C(=O)Cc2ccccc2)[C@@H](C)CN([C@@H](C)CO)C(=O)c2cc(NC(=O)Nc3ccc(F)cc3)ccc2O1 | inactive: 1.03 |
| C[C@@H]1CN([C@@H](C)CO)C(=O)c2cc(NS(=O)(=O)c3ccc(F)cc3)ccc2O[C@@H]1CN(C)S(=O)(=O)c1cccs1 | inactive: 1 |
| Cc1noc(C)c1NC(=O)Nc1ccc2c(c1)C(=O)N([C@@H](C)CO)C[C@@H](C)[C@H](CN(C)C(=O)C1CCCCC1)OCCCC[C@H](C)O2 | inactive: 1.01 |
| Clc1nc(-c2ccccn2)nc2scc(-c3ccccc3)c12 | inactive: 0.979 |
| CC(=O)C1C(=O)C=C(C)OC1=O (stereo unspecified) | inactive: 0.841 |
| CCOC(=O)CNC(=O)c1cnn2cccnc12 | inactive: 1.02 |
| O=C(C[C@H]1C=C[C@@H](NC(=O)c2cccnc2)[C@H](CO)O1)NCCN1CCCCC1 | inactive: 1.01 |
| C[C@@H]1CN([C@@H](C)CO)C(=O)c2cc(NC(=O)Cc3ccccc3)ccc2O[C@H]1CN(C)C(=O)Nc1ccc(C(F)(F)F)cc1 | inactive: 0.995 |
| C[C@@H]1CN([C@@H](C)CO)C(=O)c2cc(N(C)C)ccc2O[C@@H](C)CCCCO[C@H]1CN(C)C(=O)CCCN(C)C | inactive: 1.01 |
| C[C@H](CO)N1C[C@H](C)[C@H](CN(C)S(=O)(=O)c2cn(C)cn2)Oc2ccc(NS(=O)(=O)c3cn(C)cn3)cc2CC1=O | inactive: 0.993 |
| C[C@H](CO)N1C[C@H](C)[C@H](CN(C)Cc2ccc3c(c2)OCO3)OCc2ccccc2-c2c(n(C)c3ccccc23)C1=O | inactive: 0.973 |
| C[C@@H]1CN([C@@H](C)CO)C(=O)c2cc(NC(=O)Cc3ccccc3)ccc2O[C@H]1CN(C)Cc1ccc(Cl)c(Cl)c1 | inactive: 1.01 |
| C[C@@H]1CN([C@H](C)CO)C(=O)c2cc(C#CC3(O)CCCC3)cnc2O[C@@H]1CN(C)C(=O)C1CCCCC1 | inactive: 1.02 |
| COc1ccc(NC(=O)N(C)C[C@H]2Oc3c(NS(=O)(=O)c4c(C)noc4C)cccc3C(=O)N([C@@H](C)CO)C[C@H]2C)cc1 | inactive: 0.987 |

| Compound | relative growth |
| --- | --- |
| C=CCN1C(=O)[C@]2(O[C@H](CCn3cc([C@H](O)c4ccccc4)nn3)[C@@H]([Si](C)(C)c3ccc(OC)cc3)[C@@H]2C)c2cc(N3C(=O)c4cccc5cccc3c45)ccc21 | inactive: 1.01 |
| COc1ccc(S(=O)(=O)N(C)C[C@@H]2Oc3cc(C#CC4CC4)ccc3S(=O)(=O)N([C@H](C)CO)C[C@@H]2C)cc1 | inactive: 1.04 |
| C[C@@H]1CN([C@H](C)CO)S(=O)(=O)c2ccc(C#CCN(C)C)cc2O[C@@H]1CN(C)Cc1ccccc1F | inactive: 1.03 |
| CC(=O)n1cc([C@@H]2C=C(C(=O)NCc3ccccc3)O[C@H](OCc3ccc(CO)cc3)C2)c2ccccc21 | inactive: 1.01 |
| C[C@H](CO)N1C[C@H](C)[C@@H](CN(C)Cc2ccc3c(c2)OCO3)Oc2c(NC(=O)Nc3cccc4ccccc34)cccc2C1=O | inactive: 1.01 |
| C[C@@H]1CCCCO[C@H](CN(C)C(=O)Nc2ccc(F)cc2)[C@H](C)CN([C@H](C)CO)C(=O)c2cc(NC(=O)c3ccncc3)ccc2O1 | inactive: 0.988 |
| COc1ccccc1NC(=O)N(C)C[C@H]1OCc2ccccc2-c2c(n(C)c3ccccc23)C(=O)N([C@@H](C)CO)C[C@@H]1C | inactive: 1.01 |
| C[C@@H]1CN([C@H](C)CO)C(=O)c2cc(C#Cc3ccncc3)cnc2O[C@@H]1CN(C)S(=O)(=O)c1ccccc1F | inactive: 0.995 |
| CNCC1CCOCC1 | inactive: 0.959 |
| OC[C@H]1O[C@@](CO)(O[C@H]2O[C@H](CO)[C@@H](O)[C@H](O)[C@H]2O)[C@@H](O)[C@@H]1O | inactive: 0.983 |
| C[C@H](CO)N1C[C@H](C)[C@H](CN(C)Cc2ccc(Oc3ccccc3)cc2)Oc2ncc(-c3cccnc3)cc2C1=O | inactive: 1.03 |
| COc1cc2c(cc1OC)CN(CCc1ccc(NC(=O)c3cc(OC)c(OC)cc3NC(=O)c3cnc4ccccc4c3)cc1)CC2 | inactive: 0.965 |
| O=C1CN(S(=O)(=O)Cc2ccccc2)C[C@H]2[C@H](c3ccc(C#Cc4cccc(F)c4)cc3)[C@@H](CO)N12 | inactive: 1.01 |
| C[C@@H]1CN([C@H](C)CO)C(=O)c2cccc(NC(=O)CCCCCC(=O)Nc3ccccc3N)c2O[C@@H]1CN(C)Cc1ccc(C(F)(F)F)cc1 | inactive: 1.02 |
| Cc1ccccc1C(=O)Nc1ccc(C(=O)N2CCCC(O)c3cc(Cl)ccc32)c(C)c1 (stereo unspecified) | inactive: 0.823 |
| C[C@@H]1CN([C@@H](C)CO)C(=O)c2cc(NC(=O)Cc3ccccc3)ccc2O[C@@H](C)CCCCO[C@H]1CN(C)C(=O)CCC(F)(F)F | inactive: 0.969 |
| CC(C)NC(=O)Nc1cccc2c1O[C@@H](CN(C)Cc1ccc3c(c1)OCO3)[C@@H](C)CN([C@H](C)CO)C2=O | inactive: 0.939 |
| COc1cccc(S(=O)(=O)N(C)C[C@H]2OCc3cnnn3CCCC(=O)N([C@H](C)CO)C[C@H]2C)c1 | inactive: 1.04 |
| Cc1ccc(S(=O)(=O)Nc2ccc3c(c2)C(=O)N([C@@H](C)CO)C[C@H](C)[C@H](CN(C)S(C)(=O)=O)OCCCC[C@@H](C)O3)cc1 | inactive: 1 |
| C[C@H]1CN([C@@H](C)CO)C(=O)Cc2cc(NC(=O)C3CCCCC3)ccc2O[C@@H]1CN(C)C(=O)Nc1cccc2ccccc12 | inactive: 1.03 |
| Cc1ccccc1S(=O)(=O)N1C[C@@H](O)COC[C@@H]2O[C@@H](CC(=O)NCc3ccccc3Cl)CC[C@H]21 | inactive: 1.02 |

| Compound | relative growth |
| --- | --- |
| CN(C)[C@@H]1C(=O)[C@@H](C(N)=O)C(=O)[C@@]2(O)C(=O)[C@H]3C(=O)c4c(O)ccc(Cl)c4[C@@H](O)[C@H]3C[C@@H]12 | active: 0.0324 |
| Cc1ccc(S(=O)(=O)N(C)C[C@@H]2Oc3c(NC(=O)Nc4cccc5ccccc45)cccc3C(=O)N([C@H](C)CO)C[C@@H]2C)cc1 | inactive: 1 |
| C[C@@H]1CCCCO[C@H](CN(C)C(=O)Nc2ccc(F)cc2)[C@@H](C)CN([C@H](C)CO)C(=O)c2cc(NC(=O)Nc3ccc(F)cc3)ccc2O1 | inactive: 1.03 |
| C[C@@H]1CCCCO[C@@H](CN(C)Cc2ccc(C(=O)O)cc2)[C@H](C)CN([C@H](C)CO)C(=O)c2cc(NC(=O)C3CCCCC3)ccc2O1 | inactive: 1.01 |
| COCC#Cc1ccc2c(c1)O[C@@H](CN(C)C(=O)c1ccccc1F)[C@@H](C)CN([C@H](C)CO)S2(=O)=O | inactive: 1.01 |
| Cc1noc(C)c1NC(=O)N(C)C[C@@H]1Oc2c(NC(=O)c3ccncc3)cccc2C(=O)N([C@H](C)CO)C[C@H]1C | inactive: 0.995 |
| COc1cccc(C#Cc2ccc3c(c2)O[C@@H](CN(C)C(=O)c2ccccn2)[C@H](C)CN([C@@H](C)CO)S3(=O)=O)c1 | inactive: 0.992 |
| COc1ccc(C#Cc2ccc3c(c2)O[C@H](CN(C)C(C)=O)[C@H](C)CN([C@@H](C)CO)S3(=O)=O)cc1 | inactive: 1.03 |
| C[C@H]1CN([C@@H](C)CO)C(=O)c2cccc(NC(=O)CCCCCC(=O)Nc3ccccc3N)c2O[C@@H]1CN(C)Cc1ccc(C(F)(F)F)cc1 | inactive: 1.01 |
| COc1ccc(S(=O)(=O)Nc2ccc3c(c2)C(=O)N([C@H](C)CO)C[C@@H](C)[C@@H](CN(C)C(=O)NC(C)C)O3)cc1 | inactive: 0.919 |
| COc1ccc([Si](C)(C)[C@@H]2[C@@H](CC(=O)N(CCO)Cc3ccccc3)O[C@]3(C(=O)N(Cc4cccc(N5CCC5=O)c4)c4ccccc43)[C@H]2C)cc1 | inactive: 1.02 |
| COc1ccc(NC(=O)N(C)C[C@H]2Oc3ncc(C#CC(C)C)cc3C(=O)N([C@@H](C)CO)C[C@@H]2C)cc1 | inactive: 1.02 |
| C[C@@H]1CN([C@@H](C)CO)C(=O)Cc2cc(NS(=O)(=O)c3cn(C)cn3)ccc2O[C@H]1CN(C)Cc1ccc(C(=O)Nc2ccccc2N)cc1 | inactive: 1 |
| CN1CCN(C(=O)c2nn(C)c3c2CCN(S(C)(=O)=O)C3)CC1 | inactive: 0.998 |
| CCCNC(=O)Nc1ccc2c(c1)OC[C@H](C)N(Cc1ccc(-c3ccccn3)cc1)C[C@@H](C)[C@@H](OC)CN(C)C2=O | inactive: 1.02 |
| O=C(C[C@H]1CC[C@@H](NC(=O)Cc2ccccn2)[C@H](CO)O1)NCCc1ccncc1 | inactive: 0.99 |
| CCCN(CCC)[NH2+][O-] | inactive: 1.01 |
| O=C(C[C@H]1NC(=O)NC1=O)NCc1[nH]nc2c1CCC2 | inactive: 0.973 |
| CN(C)CCCNC(=O)C[C@H]1CC[C@@H]2[C@H](COc3ccc(NC(=O)c4ccc5c(c4)OCO5)cc3C(=O)N2C)O1 | inactive: 0.994 |
